Legend:
[1] = molecular target: T1, ASPP2 Ank-SH3 (ASPP2 893–1128) (UniProt Q13625 893-1128); experiment: fluorescence polarisation; fluorescence anisotropy competition; p53CD added to a mixture of 83 nM Fl-ASPP2 722–737 and 8.3 µM ASPP2 Ank-SH3; 20 mM Hepes pH 7.0, IS = 50 mM, 5 mM βME; settings: both partners purified
T1 construct: ASPP2, four ankyrin repeats and SH3 domain, residues 893-1128
T1 sequence (looked up): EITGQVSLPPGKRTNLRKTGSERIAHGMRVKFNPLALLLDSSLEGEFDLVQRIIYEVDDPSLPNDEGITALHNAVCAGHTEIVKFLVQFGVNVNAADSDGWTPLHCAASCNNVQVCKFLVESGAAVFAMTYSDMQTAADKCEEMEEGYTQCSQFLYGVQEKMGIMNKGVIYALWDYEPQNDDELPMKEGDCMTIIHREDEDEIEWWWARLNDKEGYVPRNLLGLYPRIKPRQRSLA

[2] = molecular target: T1, ASPP2 Ank-SH3 (ASPP2 893–1128); experiment: fluorescence polarisation; fluorescence anisotropy competition; p53CD titrated into the fully formed complex of ASPP2 Ank-SH3 and Fl-NFκB 303–332; IS = 150 mM; settings: both partners purified

Kd [1]: 470 nM
Kd [2]: 2450 nM
B1: p53 core domain (p53 […]) (domain or fragment)
chain: not shown
notes: No tag is named; the purification used ion exchange, heparin and gel filtration only; also called p53CD; p53CD […]; source: E. coli C41 (DE3), purified (HiTrap SP cation exchange, HiTrap heparin, Superdex 75 gel filtration)

Reference: article PMC3589414, “Regulation of ASPP2 Interaction with p53 Core Domain by an Intramolecular Autoinhibitory Mechanism” (PLoS ONE, 2013)
